Test results published in a collection of fitness landscapes (doi:10.1016/j.celrep.2020.107928).
The full ranking holds about 81,000 sequences; the median of “one-hybrid fitness for binding NBS DNA” is about -0.1, and the highest 2% start at about 0.36. The list shows a part of the results.

B1: Caulobacter ParB omega fusion; a variant is named by its letters at X, in order, B8GW30 (parent)
chain: MESVVVGEPGMSEGRRGLGRGLSALLGEVDAAPAQAPGEQLGGSREAPIEILQRNPDQPRRTFREEDLEDLSNSIREKGVLQPILVRPSPDTAGEYQIVAGERAWRAAQRAGLKTVPIMVRELDDLAVLEIGIIENVQRADLNVLEEALSYKVLMEKFERTQENIAQTIGKSXSHVANXMRLLXLPDEVQSYLVSGELTAXHARAIAAAADPVALAKQIIEGGLSVRETEALARKAPNLSAGKSKGGRPPRVKDTDTQALESDLSSVLGLDVSIDHRGSTGTLTITYATLEQLDDLCNRLTRGI

Variants of: B1
Assay: one-hybrid fitness for binding NBS DNA (the Noc-binding site; scaled: cognate 1, non-cognate 0); higher = stronger binding
Details: with NBS DNA site
Procedure, shortened: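 Caulobacter ParB libraries with four specificity codons randomised were screened by bacterial one-hybrid selection in the E. coli USO strain, using a HIS3 reporter whose site lies 19 bp from the promoter. Selection ran for 48 hours at 37°C on M9 lacking histidine, with 0.1 mM IPTG and 5 mM 3-AT. Plasmids were Illumina-sequenced before and after selection, three replicate libraries were pooled, and variants with under 10 reads were dropped. Fitness is the log change in each variant's read ratio to wild type, rescaled against the cognate and non-cognate sites.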

| Variant | one-hybrid fitness for binding NBS DNA |
| --- | --- |
| MGLR | ≤ 0.2 |
| NQKN | ≤ 0.2 |
| HRLV | ≤ 0.2 |
| HNGL | ≤ 0.2 |
| QWQS | ≤ 0.2 |
| TWQC | ≤ 0.2 |
| TRFK | ≤ 0.2 |
| STFG | ≤ 0.2 |
| PYAY | ≤ 0.2 |
| SAIC | ≤ 0.2 |
| RTMH | ≤ 0.2 |
| QVIY | ≤ 0.2 |
| AGHT | ≤ 0.2 |
| WYGG | ≤ 0.2 |
| VRWG | ≤ 0.2 |
| MTTW | ≤ 0.2 |
| GAGS | ≤ 0.2 |
| LQMS | ≤ 0.2 |
| KQWS | ≤ 0.2 |
| MNHY | ≤ 0.2 |
| KHCS | ≤ 0.2 |
| QYST | 0.413 |
| QTWH | ≤ 0.2 |
| PHKQ | ≤ 0.2 |
| RASS | 0.421 |
| AHWR | ≤ 0.2 |

| Variant | one-hybrid fitness for binding NBS DNA |
| --- | --- |
| KVGA | ≤ 0.2 |
| QNQP | ≤ 0.2 |
| LHSG | ≤ 0.2 |
| LHFG | ≤ 0.2 |
| DYYR | ≤ 0.2 |
| QTAF | ≤ 0.2 |
| WKMR | ≤ 0.2 |
| NSTS | ≤ 0.2 |
| IQNF | ≤ 0.2 |
| YVYV | ≤ 0.2 |
| TISY | ≤ 0.2 |
| VAYM | ≤ 0.2 |
| YALV | ≤ 0.2 |
| ACRK | ≤ 0.2 |
| CQVT | ≤ 0.2 |
| GAER | ≤ 0.2 |
| PRCT | ≤ 0.2 |
| CTSN | ≤ 0.2 |
| SQAC | ≤ 0.2 |
| LRIR | ≤ 0.2 |
| EGTK | ≤ 0.2 |
| KNVT | ≤ 0.2 |
| RYYS | 0.371 |
| RVAC | ≤ 0.2 |
| DDFT | ≤ 0.2 |
| AVST | ≤ 0.2 |

| Variant | one-hybrid fitness for binding NBS DNA |
| --- | --- |
| RMGP | ≤ 0.2 |
| LYVM | ≤ 0.2 |
| RHTC | ≤ 0.2 |
| QKIY | ≤ 0.2 |
| KRWL | ≤ 0.2 |
| QLCV | ≤ 0.2 |
| GINK | ≤ 0.2 |
| PVQR | ≤ 0.2 |
| QTWP | ≤ 0.2 |
| DQLY | ≤ 0.2 |
| STPH | ≤ 0.2 |
| RMKA | 0.338 |
| PCQY | ≤ 0.2 |
| QITV | 0.237 |
| YLHR | ≤ 0.2 |
| EARL | ≤ 0.2 |
| TWGG | ≤ 0.2 |
| AMAP | ≤ 0.2 |
| NMRT | ≤ 0.2 |
| PNPA | ≤ 0.2 |
| THVS | ≤ 0.2 |
| MPAS | ≤ 0.2 |
| RFHC | ≤ 0.2 |
| YAHG | ≤ 0.2 |
